Data on 44 molecules can be found in publication PMC4336329 (PLoS ONE, 2015).

Screen size: about 310,000 compounds; about 2,200 (0.71%) showed an effect of 50% or more. The effect is printed as a negative number. Some of the results follow. Where a SMILES comes first, the peptide text is derived from it. The star is where a group is joined. Cbz = O=C(OCc1ccccc1)*

Sequence of human ether-à-go-go-related gene (hERG) potassium channel (Q12809 whole entry, looked up): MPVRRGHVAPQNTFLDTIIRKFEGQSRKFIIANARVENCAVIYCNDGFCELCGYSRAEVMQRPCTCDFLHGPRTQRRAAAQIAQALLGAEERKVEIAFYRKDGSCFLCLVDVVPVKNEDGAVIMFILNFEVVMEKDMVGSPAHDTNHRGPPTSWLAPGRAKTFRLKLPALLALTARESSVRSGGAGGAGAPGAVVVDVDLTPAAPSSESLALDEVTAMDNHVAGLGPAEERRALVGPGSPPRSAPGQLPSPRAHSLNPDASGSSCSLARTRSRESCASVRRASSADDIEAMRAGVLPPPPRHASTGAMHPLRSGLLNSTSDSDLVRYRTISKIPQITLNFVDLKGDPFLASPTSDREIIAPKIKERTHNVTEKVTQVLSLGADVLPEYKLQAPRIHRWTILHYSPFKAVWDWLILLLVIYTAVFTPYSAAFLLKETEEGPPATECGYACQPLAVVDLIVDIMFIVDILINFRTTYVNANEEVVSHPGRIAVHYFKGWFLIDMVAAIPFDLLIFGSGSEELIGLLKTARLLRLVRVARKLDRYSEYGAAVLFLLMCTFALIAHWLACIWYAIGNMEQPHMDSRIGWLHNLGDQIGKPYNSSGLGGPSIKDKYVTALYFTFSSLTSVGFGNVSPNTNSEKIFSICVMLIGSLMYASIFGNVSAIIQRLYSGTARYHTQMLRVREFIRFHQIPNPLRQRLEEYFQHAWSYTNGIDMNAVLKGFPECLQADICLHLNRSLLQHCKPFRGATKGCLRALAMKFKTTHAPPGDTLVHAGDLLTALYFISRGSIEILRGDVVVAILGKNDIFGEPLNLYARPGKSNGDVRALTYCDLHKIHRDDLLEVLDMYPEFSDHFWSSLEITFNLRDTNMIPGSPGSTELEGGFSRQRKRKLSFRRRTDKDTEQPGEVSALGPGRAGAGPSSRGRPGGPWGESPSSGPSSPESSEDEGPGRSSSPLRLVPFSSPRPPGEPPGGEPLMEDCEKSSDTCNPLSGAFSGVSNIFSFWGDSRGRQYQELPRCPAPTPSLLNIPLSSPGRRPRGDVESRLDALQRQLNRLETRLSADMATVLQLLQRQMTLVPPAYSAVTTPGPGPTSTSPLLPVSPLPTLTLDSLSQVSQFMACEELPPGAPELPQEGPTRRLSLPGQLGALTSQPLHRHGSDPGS

The assay addresses human ether-à-go-go-related gene (hERG) potassium channel (human, UniProt Q12809). In words: primary screen, population patch clamp on CHO cells stably expressing hERG.
For `COc1ccc2oc(=O)c(-c3cn4ccc(C)cc4n3)cc2c1`, the “hERG current change (%, negative = inhibition) at 1uM” value is 10.1%.
To `CCCc1cc(=O)[nH]c(SCC(=O)N2CCN(S(=O)(=O)c3ccc(C)cc3C)CC2)n1` belongs 17.5%; to `O=C1C(=O)N(CCCn2ccnc2)C(c2cccnc2)/C1=C(/O)c1ccc(F)cc1` (centres unmarked), 10.1%; to `Cc1ccc(-c2nnc(COC(=O)c3cc(=O)[nH]c4ccccc34)o2)cc1`, 8.42%.
To `O=C(CSc1nc2ccccc2o1)Nc1nc2ccccc2s1` belongs 9.85%; to `CCOc1ccc(-n2c(SCC(=O)NC3CCS(=O)(=O)C3)nnc2-c2cccnc2)cc1` (centres unmarked), 23.3%.
To `CCOc1ccc(C)cc1S(=O)(=O)NC1CCCCC1` belongs -8.33%; to `O=[N+]([O-])c1cc2c(cc1/C=N/n1cnnc1)OCO2`, 9.68%; to `CCc1ccccc1N(CC(=O)NCCc1ccccc1)C(=O)CCC(=O)Nc1ccccn1`, -0.84%.
As to `CCCc1cc(C(=O)N2CCC(N3CCC(C(=O)NC(C)C)CC3)CC2)n(C)n1`, the “hERG current change (%, negative = inhibition) at 1uM” value stood at 8.76%.
To `COC(=O)C(CO)NC(=O)C(C)NC(=O)CNC(=O)OCc1ccccc1` (stereo not drawn) (Cbz-Gly-Ala-Ser-OMe; configuration not given here) belongs 13.4%; to `COc1ccc([N+](=O)[O-])cc1NC(=O)C(C)N(C)Cc1cccc(OC)c1OC` (centres unmarked), 2.1%.
As for `CCOC(=O)N1CCN(C(=O)CN2C(=O)COc3ccc(C)cc32)CC1`, the “hERG current change (%, negative = inhibition) at 1uM” value came to 7.11%.
As to `O=C(CSc1nnc(NC(=O)C2CC2)s1)NCc1ccccc1`, the “hERG current change (%, negative = inhibition) at 1uM” value is on record as 7.37%.
For `CN(CC(=O)NC1CCCCCCC1)S(=O)(=O)c1cnc[nH]1`, the “hERG current change (%, negative = inhibition) at 1uM” value stood at 11%.
The value for `CCCCNC(=O)CNC(=S)N(Cc1ccccc1F)C1CCCCC1` was 10.9%.
To `COc1ccc([C@H]2CC(=O)C=C(c3ccc(F)cc3OCc3ccccc3)C2)cc1OC` belongs 10.3%; to `CN(C)S(=O)(=O)c1ccc(N2CCCC2)c(C(=O)Nc2ccccc2)c1`, 3.62%; to `Cc1ccc(NC(=O)CN(C)C(=O)CCC(=O)N2CCOCC2)cc1`, 9.66%.
To `Cc1ccc(N2CCN(S(=O)(=O)N(C)C)CC2)cc1Cl` belongs 8.63%; to `O=C(CNc1cccc(S(=O)(=O)N2CCOCC2)c1)N1CCc2ccccc21`, 12.5%.
Turning to `Cc1ccc(S(=O)(=O)N2CCC(C(=O)OCCOc3ccccc3)CC2)cc1C`, the “hERG current change (%, negative = inhibition) at 1uM” value worked out at 1.87%.
To `CCN1C(=O)N[C@@H](c2ccccc2)[C@@H](C(=O)OC)[C@H]1C` belongs 10.6%; to `Cc1nc2c(Br)c3nc(C(F)(F)F)[nH]c3c(Br)c2[nH]1`, -0.126%.
The value for `NC(=O)NC(=O)COC(=O)c1ccc(OC(F)F)cc1` was 11.9%.
To `CS(=O)(=O)N(CC(=O)N1CCCCC1)c1ccc2c(c1)OCO2` belongs 11.6%.
On to `CC1(C)S[C@@H]2C(C(=O)OCc3ccccc3)NC(=O)N2C1C(=O)OCc1ccccc1` (some centres unmarked), for which the “hERG current change (%, negative = inhibition) at 1uM” value came to 9.86%.
Take `O=C(NC(=O)c1ccc(C(F)(F)F)cc1)Nc1ccc(-c2cnco2)cc1`: the “hERG current change (%, negative = inhibition) at 1uM” value came to 14.1%.
As to `O=C(NCc1cccs1)C1CCCN(S(=O)(=O)c2cccs2)C1` (centres unmarked), the “hERG current change (%, negative = inhibition) at 1uM” value is listed as 6.35%.
With `O=C(CSc1nnc(-c2cccnc2)n1Cc1ccco1)c1ccc(Cl)c(Cl)c1`, the “hERG current change (%, negative = inhibition) at 1uM” value is listed as -12.2%.
As for `COCc1cc(=O)n2[nH]c(-c3cccc(Br)c3)cc2n1`, the “hERG current change (%, negative = inhibition) at 1uM” value is recorded as -10.1%.
The value for `c1ccc2c(c1)OCC(CNCC1COc3ccccc3O1)O2` (centres unmarked) was 12%.
To `CN1CCSc2ccc(C(=O)NCc3ccccc3F)cc21` belongs 5.81%; to `Cc1cccc(NC(=O)Cn2cnc3c(oc4nc5c(cc43)COC(C)(C)C5)c2=O)c1`, -14.6%; to `Cc1c(NC(=O)NC(C)N2C(=O)C3C4C=CC(C4)C3C2=O)c(=O)n(-c2ccccc2)n1C` (centres unmarked), 12.8%.
In the case of `CCOc1ccc(S(=O)(=O)n2ccc(C)n2)c2ccccc12`, the “hERG current change (%, negative = inhibition) at 1uM” value turned out to be 9.46%.
To `COC(=O)C1(C(C[N+](=O)[O-])c2ccco2)C(=O)NCC1c1ccccc1` (centres unmarked) belongs 13.2%; to `CC(C)C[C@H](NC(=O)OC(C)(C)C)C(=O)N1CCC(C(=O)N[C@@H](Cc2ccccc2)C(=O)O)CC1`, 11.5%.
Take `O=C(O)Cn1c(=O)c(-c2ccccc2)nc2ccccc21`: the “hERG current change (%, negative = inhibition) at 1uM” value is 28.8%.
To `CN=C(NC#N)SCC(=O)c1ccc(Cl)cc1Cl` belongs 7.76%; to `CCOC(=O)N1CCC(=NNc2ccc(S(=O)(=O)N3CCOCC3)cc2[N+](=O)[O-])CC1`, 0.353%.
With `CCS(=O)(=O)N1CCC(NC(=O)c2cc(OC)cc(OC)c2)CC1`, the “hERG current change (%, negative = inhibition) at 1uM” value amounted to 13%.
`COCCNC(=O)C(C(=O)c1ccc(F)cc1)n1cc(C)ccc1=O` (centres unmarked): the “hERG current change (%, negative = inhibition) at 1uM” value was found to be 10.9%.
To `OCC[C@H]1C[C@@H](O)[C@H](O)[C@@]2(CCCCO2)O1` belongs -0.629%.
